Data as given in PMC12136788.
The list shows a part of the results.

B1: chr2:217001844:217001845:+_ENSG00000079246_ENST00000392132|hu_hu|hu_hu_hu_mus_False|68_68 (ssRNA)
RNA: GGGAGUUCUACAGUCCGACGAUCACCAACUUGAGGAUUAGAUCUUUUGUCAUAAGCAUAUCGGACGAUGGCCACCAUGUUUAACUCAUCCAAAGCAUGAACGAGAGAGGAAAGGGCAACAGCUGCCGCCUCAUCAUCCUUUGCCAACAGAGGAUUGAGCAUCA
B2: 75867097_75868833_2698_CDS_ENSG00000035403_ENST00000372755|human|control|control (ssRNA)
RNA: GGGAGUUCUACAGUCCGACGAUCCUGCUCAGGGAACUCUUCAUCCUUUUCCUCUGGUGGUGGAGGCCUAGGUGGAGGGACCUCACCUUCAGGCAGAGGUGGUUUGGGAGGAGCAAGCUCAUCUGUUAGUCGGAGUUGUUCAAGCAACAGAGGAUUGAGCAUCA
B3: chr17:13115065:13115066:+_ENSMUSG00000068039_ENSMUST00000151287|mus_hu|FALSE|FALSE (ssRNA)
RNA: GGGAGUUCUACAGUCCGACGAUCAAUAGUUGCUCCAGAAGCUUUGGCAAUGCGUUUAAGGUCCCUUUUUAAAACUCUUCUAACUGCCAUAGCACCAGCCUCCACAAAAUACUUCAGACACAUAUCAUCAAUUCCACCAGUGGUCAACAGAGGAUUGAGCAUCA
B4: chr1:220275481:220275482:+_ENSG00000067704_ENST00000302637|hu_hu|FALSE|FALSE (ssRNA)
RNA: GGGAGUUCUACAGUCCGACGAUCAAAUGCUGAUUUCUGUUUCUCAAUGGCUGCUUUAGCAAAUGAUCUAGCUUUCUUUCUAAUUUCCAUAGCUGAAAGAUUCUGAGCUUCUCUACCAAGUUCUGAUAAUACUUUUAUUUCAAUCAACAGAGGAUUGAGCAUCA
B5: 78012816_78016265_409_CDS_ENSMUSG00000025428_ENSMUST00000026495|mouse|control|control (ssRNA)
RNA: GGGAGUUCUACAGUCCGACGAUCAGCUGUGCCAGUCUUCUGAAGUCGAGUGUUAGAGGCAUGGAGAUUUCUUGCACCAACAAAGGAUGACCCCAAAGCAUUUUUGGAGACCAGUCCCGCCCGUCGAGGGAGGGCACGGGCCACCAACAGAGGAUUGAGCAUCA
B6: 16720979_16721531_715_3pUTR_ENSG00000125870_ENST00000246071|human|control|control (ssRNA)
RNA: GGGAGUUCUACAGUCCGACGAUCGCCUCCCUGGUACCAGACGUACUUCCUUGAAGCCAGGGAACUGAUUAAACAGCAUGGAUAACAUCAUCUCAUUAGUCUCUUCUGGUAAGUUAUUAAGGAAUAAAAUAUAGUUUGGAGGGUCAACAGAGGAUUGAGCAUCA
B7: chr2:103900078:103900079:+_ENSMUSG00000027180_ENSMUST00000028603|mus_mus|FALSE|FALSE (ssRNA)
RNA: GGGAGUUCUACAGUCCGACGAUCGAAGUCUGGUCUGGUGUAGGCAUGGUGCACACAUCUAGCACUUGGGAGGCAAUCGAGCUAUAGACACCCUGAAUGUUGGACAUGCCAUGUGGAAUCGGGGGAUGGCAACAUUAAAGACCUCAACAGAGGAUUGAGCAUCA
B8: chr5:31101443:31101444:+_ENSMUSG00000029168_ENSMUST00000114729|mus_mus|FALSE|FALSE (ssRNA)
RNA: GGGAGUUCUACAGUCCGACGAUCUGGUUUUUGGGUCAAUAUAAGAGAUGCCAUUGUCACGGCAAUGGCUUGACAAGCAACCUACUGUGGACUCCUAGCACUACACAUACACACACGCACACACACACUGUAGCACAAUUUUCUCAACAGAGGAUUGAGCAUCA
B9: 91656768_91656888_2245_CDS_ENSMUSG00000022961_ENSMUST00000114036|mouse|control|control (ssRNA)
RNA: GGGAGUUCUACAGUCCGACGAUCCUGGGAGUCCAUGGUGCUAGAGGCUAACAUCUGGGAGUCCAUGGUAUUGGAUGCUAGCAUCUGAGAAUCCAUAGUGUUGGAUGCUAGCAUCUGGGAGUCCAUGGUAUUGGAUGCUAACAUCAACAGAGGAUUGAGCAUCA
B10: chr9:74900086:74900087:+_ENSMUSG00000007656_ENSMUST00000169492|mus_hu|FALSE|FALSE (ssRNA)
RNA: GGGAGUUCUACAGUCCGACGAUCUUGUCCCAGAUGAGGAUAUCUUGCUUUUAAUUUUGCUUCUUCUGCUUUCUCUGGACUAGUCACUUUAUCUUCCAUUUCCUUCUGCUCCUCCGCGGAGGCUGCCUCGGGGACUUCCGCAGACAACAGAGGAUUGAGCAUCA
B11: chr1:155290277:155290278:+_ENSG00000160752_ENST00000447866|hu_hu|FALSE|FALSE (ssRNA)
RNA: GGGAGUUCUACAGUCCGACGAUCGUACUGUUCAAUGAGAGCCAUAAUGUGGCUGUAACUGUCUUCCUCAUAUUGCAAGAACACUGCUGGCAGAUCCAGCUCCUCAUAUAGCGCCUUCACCCGGGCCACUUUCUCAGCCUCCUUCAACAGAGGAUUGAGCAUCA
B12: chr5:33170631:33170632:-_ENSMUSG00000054280_ENSMUST00000120129|mus_mus|FALSE|FALSE (ssRNA)
RNA: GGGAGUUCUACAGUCCGACGAUCGGAAUGGCACAGAGUAGCCUUCGGCUUUGGUAUGUGGCUGCGCAAGUUCUCGCUAGCUACGGUUUCAGGUUCCAAUGGCUUGGCAGGCACAGUACAUGGGCUGAGAAGUCUGUGUGCUUUCAACAGAGGAUUGAGCAUCA
B13: chr4:76721835:76721836:+_ENSG00000138768_ENST00000264904|hu_mus|hu_hu_hu_mus_True|38_58 (ssRNA)
RNA: GGGAGUUCUACAGUCCGACGAUCGUUUGGCUGGGGUUUCUGAGACGCUCUGGAAUAUAACUCAUGUUUGCUAAUAAUCCUAGUUUCCUCUAUGAAAUCUCUUUGCCCAAUCCUCUUCUCUAUUAGUUGCUUUAGUUUCUCUUUCAACAGAGGAUUGAGCAUCA
B14: chr1:85787162:85787163:-_ENSG00000153904_ENST00000284031|hu_mus|FALSE|FALSE (ssRNA)
RNA: GGGAGUUCUACAGUCCGACGAUCCUGGCCACAGGGAAGGGACUCUCUGGCUCAGGAGUCUAUCUUCUUGUUAAUAAAAACGGAGCAGCAGGUGAGCAAGCCGUCCACCUUUUCCAUCUCCGAGUUGCUCACAGGGAUCAGUAGCAACAGAGGAUUGAGCAUCA

The binders below were run against T1, UNK ZnF1-3 (human, UniProt Q9C0B0 31-174) (assay: nsRBNS (natural sequence RNA bind-n-seq); RBNS binding buffer (assumed for nsRBNS): 25 mM Tris pH 7.5, 150 mM KCl, 3 mM MgCl2, 0.01% Triton X-100, 500 ug/ml BSA, 20 U/ml SUPERase-In, 4 C; UNK is unkempt and MSI1 is Musashi-1; names of the RNAs are library labels; protein concentration not given here; high values mean tight binding).
T1 sequence: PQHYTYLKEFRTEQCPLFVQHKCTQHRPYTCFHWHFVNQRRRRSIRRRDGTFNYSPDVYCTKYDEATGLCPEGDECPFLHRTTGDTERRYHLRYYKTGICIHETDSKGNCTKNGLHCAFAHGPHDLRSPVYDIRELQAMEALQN
In the case of B1, the binding signal is reported as 2.24 enrichment R.
With B2 the binding signal was 1.1 enrichment R.
For B3, the binding signal was 1.21 enrichment R.
B4 gave a binding signal of 0.789 enrichment R.
In the case of B5, the binding signal is reported as 2.96 enrichment R.
In the case of B6, the binding signal is reported as 2.96 enrichment R.
B7 was tested, and the binding signal was 1.55 enrichment R.
B8 was tested, and the binding signal was 1.1 enrichment R.
In the case of B9, the binding signal is reported as 1.27 enrichment R.
With B10 the binding signal was 0.474 enrichment R.
Binder B11 has a binding signal of 0.847 enrichment R.
Binder B12 has a binding signal of 0.766 enrichment R.
B13 was tested, and the binding signal was 0.362 enrichment R.
B14 gave a binding signal of 0.94 enrichment R.
